# Measured values reported in the supplement of paper PMC3334620.
# Over roughly 33,000 sequences, “E-score (-0.5 to 0.5)” has its median near -0.01; the highest 2% begin near 0.26. The list shows a part of the results.
# Target: Ste12 (UniProt P13574)
# Experiment: PBM E-score (8-mer binding enrichment) (E-score (-0.5 to 0.5)); higher = stronger / more preferred TF binding; most listed sequences are background and not binding sites
# Conditions: protein concentration: 200 nM; construct: GST-DNA-binding domain
# Method in brief: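 Universal all-10-mer Agilent arrays, double-stranded by primer extension on fresh or once-stripped slides, were probed with about 100-200 nM GST-tagged yeast transcription factors made by PURExpress. Fluorescent anti-GST detected bound protein, and masliner normalised the scans. E-scores from the Universal PBM Analysis Suite were given to each ungapped eight-base word pooled with its reverse complement.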
row,Sequence,PBM E-score
1,CTTATTTA,0.171
2,TAGGCCGA,-0.23
3,CTTGTCCA,-0.171
4,CAACAATC,0.161
5,CGTCCGTA,-0.0703
6,ACCTAGAT,-0.0236
7,CCCTCTAA,0.0388
8,CAACTCGC,0.146
9,ATAGCGAA,0.00796
10,GTCACAGA,0.0869
11,TGAGAGAA,0.0828
12,AGACGGTC,-0.116
13,CACGTACG,-0.0403
14,CAGTTATA,0.107
15,TAGTACCA,-0.0853
16,CGCTCGGA,0.0593
17,CCAAGTGG,-0.14
18,GTATTGCA,-0.157
19,TATATTCA,0.142
20,TCTGTGAA,0.0905
21,CCCGATAA,0.102
22,CAATAACG,-0.00073
23,AACCCCTC,0.0941
24,CCGTAGAC,-0.14
25,ACCTTCCT,-0.221

row,Sequence,PBM E-score
1,AGTTCCAC,-0.17
2,CAAAAAAA,0.352
3,CATCAGCG,0.00813
4,TATATGGA,0.0277
5,ACGTGTTC,-0.171
6,TACGCTAA,0.0905
7,AACCAGCC,-0.096
8,AGATTCAC,-0.0623
9,ATCCAAAC,0.047
10,CGGCGCGC,0.189
11,CAGCGTAG,-0.213
12,CATGTCGG,-0.0312
13,AAGGACCG,-0.0909
14,AGCGTCTC,-0.0609
15,GGCTCACA,-0.0236
16,GACACGTA,-0.0852
17,AGTCCTAG,-0.205
18,CCTCCGTA,-0.0604
19,GAGTATGC,-0.0663
20,CATTCAAG,0.01
21,CTACTTAA,-0.0354
22,CCTCCTGA,-0.105
23,CTCCGGTC,0.0119
24,GAATGGCC,-0.02
25,CAGTCGTC,-0.139

row,Sequence,PBM E-score
1,CATCGAGC,0.0532
2,CCGGGCAG,-0.0654
3,CAGCCGCG,0.00383
4,ATACAGTA,0.0955
5,CGGAGCCC,-0.104
6,AGAAGACA,-0.132
7,AGGAGAGC,-0.187
8,CTATAGCA,-0.108
9,AAGCGTTG,-0.0369
10,TATTTCCA,0.204
11,CGTGGTAC,-0.172
12,AAAAATGG,0.104
13,TCCATACA,0.119
14,ACCGTGAC,-0.134
15,ACTTGACC,-0.179
16,GACAACTA,-0.034
17,ATCGTAGC,-0.133
18,ACTCCGGC,0.0806
19,GATGCTAA,-0.0461
20,AAGCATAA,0.142
21,AATTTAGG,0.171
22,ACGGCGAC,-0.0664
23,AAAGAGAC,0.0261
24,ATGCATCG,-0.00895
25,AGTGTGAA,0.15

row,Sequence,PBM E-score
1,AGCGTCCG,-0.197
2,GAATGTTA,-0.0177
3,CCAGCAAC,0.0447
4,CGGATTTA,0.147
5,AGAGGCAT,0.0101
6,AGACATAC,-0.0989
7,GGACTTAC,-0.155
8,CCCGTCTC,0.043
9,TCCGAGGA,0.0237
10,CCGGTCCG,-0.0528
11,ATGAGATA,0.0495
12,GCGATCAA,-0.0064
13,GTCATGTA,0.0111
14,GCACCCAA,-0.041
15,ATGGGTTG,0.0565
16,CTAAGCAG,-0.17
17,TCAATCCA,0.0701
18,GATTGGCA,-0.00753
19,ACCAGCAA,0.167
20,CTACCCTC,-0.0776
21,ACGAGCCT,-0.0238
22,AGCTAGAC,-0.0972
23,CGTAGGCC,-0.167
24,GCCCTCGA,-0.216
25,AGCGTATC,-0.104

row,Sequence,PBM E-score
1,AGCCAAGA,0.104
2,AGTGTTTA,0.174
3,CAGCTGCC,-0.0729
4,CCCTTTGC,0.0802
5,ATTTCGGC,0.119
6,AGAGAAAA,0.0984
7,ATTGGACG,-0.0864
8,GTATATAA,0.195
9,AGTGACGG,0.0725
10,ACTTTGCC,0.00902
11,ACATATAT,0.156
12,ACGACGGC,-0.0913
13,CACTACGG,-0.00988
14,GTCAGTGA,0.124
15,TCCGATCA,0.0466
16,CATTCGCG,0.0139
17,CGACGGGC,0.0783
18,CTAACGGC,-0.0316
19,CAATTCAA,-0.0136
20,ACCTTAAT,-0.0247
21,AATCGGGC,0.0955
22,CAAGCATG,-0.09
23,GGATTGCC,-0.113
24,ATTTAAAT,0.327
25,ATGACTCG,-0.0623

row,Sequence,PBM E-score
1,ACACGAGC,-0.0613
2,AGATAAAG,0.0953
3,ACAATCCA,0.0824
4,AACTTAGC,-0.0978
5,GGCTTAGA,-0.0335
6,AACTCCAG,-0.172
7,CATTCCAC,0.00027
8,CTGCTCAA,-0.189
9,AACCATAG,0.0363
10,ACTGTGAC,0.13
11,GGCAAGCA,-0.13
12,CCGCGATC,-0.0477
13,CTGGGACC,-0.17
14,GCGGAAGC,-0.17
15,GCAATGAA,0.115
16,GTGATAGA,0.00724
17,AGTTGGCA,-0.0511
18,ACTTCACT,0.0528
19,ATTTAAAG,0.275
20,AATAAGGA,0.0761
21,AAGGTCAT,-0.203
22,CGGTGCCC,-0.174
23,AATTGAGT,0.195
24,AAAAAAGT,0.233
25,CTGTAACA,0.268

row,Sequence,PBM E-score
1,ACTCTGTG,-0.109
2,CCACATCA,0.0896
3,ATGGATTC,0.186
4,AACCCCGG,-0.0682
5,ACCCCTGA,0.128
6,TCACGGCA,-0.0804
7,CCGAGGCG,-0.00873
8,ACTATCGG,-0.00489
9,CAATGTCA,0.0731
10,CTTCCGTA,0.0543
11,ACGTAATC,0.107
12,ACACACGT,-0.0424
13,AGCAAAAA,0.228
14,TGGACTAA,0.0901
15,TAACACGA,-0.0288
16,AGTCCTAA,-0.0755
17,GGATGACA,-0.0203
18,ATCCAAGG,-0.106
19,CTTAGTTA,0.0576
20,ACAGTCGG,-0.0489
21,GAGGTGTA,0.0333
22,CAAGGGTG,-0.102
